In paper PMC6919601, “Identification of Plasmodium dipeptidyl aminopeptidase allosteric inhibitors by high throughput screening” (PLoS ONE, 2019):
The campaign covered roughly 110,000 compounds. About 230 (0.21%) showed an effect of 50% or more. Some of the results follow.

Molecular target: DPAP1 (Plasmodium falciparum, UniProt Q8IIJ9)
Experiment: primary screen, percent inhibition; read by cleavage of a fluorogenic dipeptide substrate; higher = more effect of the substance
Parameters: species or system P. falciparum D10 trophozoite lysates; single well
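Note: 30 min substrate incubation versus DMSO and 10 µM JCP410 controls.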

Chain of DPAP1 (Q8IIJ9 whole entry, looked up): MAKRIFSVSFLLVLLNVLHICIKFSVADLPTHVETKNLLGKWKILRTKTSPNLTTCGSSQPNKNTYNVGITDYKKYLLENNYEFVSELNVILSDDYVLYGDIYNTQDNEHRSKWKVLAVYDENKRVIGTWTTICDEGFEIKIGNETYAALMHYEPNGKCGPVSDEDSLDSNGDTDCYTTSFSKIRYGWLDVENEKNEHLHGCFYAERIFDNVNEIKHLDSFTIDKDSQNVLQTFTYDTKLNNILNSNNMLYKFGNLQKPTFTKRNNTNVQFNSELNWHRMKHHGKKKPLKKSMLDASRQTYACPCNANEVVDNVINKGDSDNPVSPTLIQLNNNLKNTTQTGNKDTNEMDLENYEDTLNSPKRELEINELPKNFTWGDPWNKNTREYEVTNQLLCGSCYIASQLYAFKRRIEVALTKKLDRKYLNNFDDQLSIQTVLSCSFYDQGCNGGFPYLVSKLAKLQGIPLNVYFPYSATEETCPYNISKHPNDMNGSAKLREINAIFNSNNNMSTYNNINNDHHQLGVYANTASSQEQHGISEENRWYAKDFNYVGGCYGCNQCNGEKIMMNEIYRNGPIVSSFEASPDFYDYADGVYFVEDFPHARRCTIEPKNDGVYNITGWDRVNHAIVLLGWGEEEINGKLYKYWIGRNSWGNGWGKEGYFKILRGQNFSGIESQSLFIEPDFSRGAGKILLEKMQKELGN

Going from `Cc1ccc(C(=O)Nc2nc3ccc(Br)cc3s2)o1` to `COc1cccc2sc(NC(=O)c3ccccc3Oc3ccccc3)nc12`, the “% Inhibition @ 10 uM” value rises from 1.39% to 7.49%.

Compared with `Cc1ccnc(NC2c3ccccc3C(=O)N2Cc2ccccc2)c1` (centres unmarked), `O=C(C1=C(O)C(=O)N(c2ccccn2)C1c1ccccc1Cl)c1ccccc1` (centres unmarked) is higher in “% Inhibition @ 10 uM” value: -4.74% for the first, 3.91% for the second.

First: Cc1ccccc1-c1cc(C(=O)N2CCN(C)CC2)c2ccccc2n1
Second: CC(C)Oc1ccc(-c2cc(C(=O)N3CCN(C)CC3)c3ccccc3n2)cc1
The “% Inhibition @ 10 uM” value of the first is lower: -7.9% for the first, -7.61% for the second.

First: CSc1nc2nc(-c3ccccc3)cc(O)n2n1
Second: Cc1nc2nc(N)nn2c(O)c1Cc1ccccc1
The “% Inhibition @ 10 uM” value of the first is lower: -1.11% for the first, 0.795% for the second.

First: CCCC(=O)Nc1cccc(NC(=O)COc2cccc3ccccc23)c1
Second: CCC(Oc1ccccc1)C(=O)Nc1cccc2ccccc12 (centres unmarked)
The “% Inhibition @ 10 uM” value of the first is lower: -11.5% for the first, -1.04% for the second.

Going from `Cc1ccc([N+](=O)[O-])cc1NC(=O)c1cc2ccccc2cc1O` to `CSc1ccccc1C(=O)Nc1cccc(C)n1`, the “% Inhibition @ 10 uM” value falls from 0.98% to -3.63%.

First: Cc1ccc2nc3c(O)n(CC(=O)NCCC(C)C)ncc-3c2c1
Second: COc1ccc(-c2nc(SCC(=O)Nc3nccs3)c(-c3ccc(C)cc3)[nH]2)cc1OC
The “% Inhibition @ 10 uM” value of the first is lower: -1.97% for the first, 1.85% for the second.

Going from `O=C(Nc1nccs1)c1ccc(COc2ccccc2Cl)cc1` to `O=C(NC1C=CS(=O)(=O)C1)c1ccccc1SCc1ccc(F)cc1` (centres unmarked), the “% Inhibition @ 10 uM” value falls from 2.44% to 1.32%.

Compared with `COc1ccc2c(c1)C1=NN(C(C)=O)C(c3cccc(F)c3)C1CC2` (centres unmarked), `COc1ccc(NC(=O)c2cc(C)cc(C)c2)cc1` is higher in “% Inhibition @ 10 uM” value: -2.69% for the first, 1.59% for the second.

Going from `NC(=O)CSc1nnnn1-c1cccc(O)c1` to `NCCSc1nnc2c(n1)[nH]c1ccccc12`, the “% Inhibition @ 10 uM” value rises from -5.51% to 77.5%.

Going from `Clc1cccc(N2CCN(CCCc3ccccc3)CC2)c1` to `O=C1CC(Cc2ccc(Cl)cc2)C(=O)N1Cc1ccccc1` (centres unmarked), the “% Inhibition @ 10 uM” value falls from 0.472% to -3.06%.

First: O=C(/C=C/c1ccccc1)N(Cc1ccccc1)Cc1ccccc1
Second: O=C(NCc1ccccc1)c1ccc(C(=O)NCc2ccccc2)cc1
The “% Inhibition @ 10 uM” value of the first is higher: 0.997% for the first, -1.8% for the second.

Compared with `COC(=O)c1sccc1NC(=S)N1CCCCC1C` (centres unmarked), `COC(=O)c1cc(CN2CCN(C)CC2)ccc1O` is higher in “% Inhibition @ 10 uM” value: -6.55% for the first, -2.75% for the second.

Compared with `Cc1cc(C)nc(N2CCN(c3ccccn3)CC2)n1`, `O=C(CSc1ncnc2[nH]cnc12)N1CCN(c2ccccc2)CC1` is lower in “% Inhibition @ 10 uM” value: -3.08% for the first, -4.49% for the second.

Compared with `COc1ccc(/C=C2\S/C(=N/c3ccc(C(=O)O)cc3)N(C)C2=O)cc1OC`, `COc1cc(/C=C2\SC(=O)N(C)C2=O)ccc1OCC(=O)O` is lower in “% Inhibition @ 10 uM” value: 9.79% for the first, -3.06% for the second.

First: Cc1ccc(NC(=O)c2ccncc2)cc1
Second: Cc1ccc(OC(=S)Nc2ccc(O)cc2)cc1
The “% Inhibition @ 10 uM” value of the first is higher: 4.88% for the first, -2.84% for the second.

First: CN1CCN(S(=O)(=O)c2csc(C(N)=O)c2)CC1
Second: COc1ccc(CN2CCN(S(=O)(=O)c3ccc4[nH]c5c(c4c3)CCCC5)CC2)c(OC)c1OC
The “% Inhibition @ 10 uM” value of the first is higher: 2.18% for the first, -3.92% for the second.

Compared with `CC1(C)Cc2nc3sc4c(=O)n(CC(=O)c5ccc(Cl)cc5)cnc4c3cc2CO1`, `COC(=O)c1ccc(Cn2cnc3c(cnn3-c3ccc(Cl)cc3)c2=O)o1` is higher in “% Inhibition @ 10 uM” value: -2.14% for the first, -1.75% for the second.

Going from `CC(=O)N1C(C(=O)NCc2ccc(C)cc2)CSC12CCN(C)CC2` (centres unmarked) to `Cc1ccc(C(=O)N2CCN(CCNC(=O)C(=O)NC(C)C)CC2)cc1`, the “% Inhibition @ 10 uM” value rises from -5.74% to 3.59%.

Going from `CC1(C#CCN2CCOCC2)CC1(Cl)Cl` (centres unmarked) to `COc1ccc(/C=C/C(=O)N2CCN(c3ccc(N4CCOCC4)nn3)CC2)cc1OC`, the “% Inhibition @ 10 uM” value falls from 1.7% to -3.45%.

Compared with `Cc1cc(C(=O)NCc2ccc(C)o2)n[nH]1`, `Cc1c(CNC(=O)c2nn3c(c2Cl)NC(c2ccccc2)CC3C(F)(F)F)cnn1C` (centres unmarked) is lower in “% Inhibition @ 10 uM” value: 2.28% for the first, -0.864% for the second.

First: CCOC(=O)c1c(NC(=O)c2ccccc2F)sc2c1CCN(C(=O)OCC)C2
Second: CC(=O)Nc1sc2c(c1C(N)=O)CCC(C)C2 (centres unmarked)
The “% Inhibition @ 10 uM” value of the first is lower: 0.997% for the first, 4.61% for the second.

Compared with `CC(=O)c1ccc(NS(=O)(=O)c2ccc(Br)cc2)cc1`, `O=C(Nc1ccc(S(=O)(=O)N2CCc3ccccc32)cc1)c1ccccc1Br` is higher in “% Inhibition @ 10 uM” value: 1.28% for the first, 1.79% for the second.

Going from `CC(C)C[C@H](NC(=O)c1cc(Br)cs1)C(=O)NCC#N` to `Cc1c(C(=O)N2CCCCC2)sc(NC(=O)c2ccc(Br)cc2)c1C#N`, the “% Inhibition @ 10 uM” value rises from -1.41% to 1.01%.

First: O=C1N=C(Nc2ccc(Br)cc2)S/C1=C\c1ccccc1O
Second: O=C1CC(C(=O)Nc2ccc(Br)cc2)C(c2ccccc2)O1 (centres unmarked)
The “% Inhibition @ 10 uM” value of the first is higher: 14.1% for the first, 3.98% for the second.

Going from `CC(C)NC(=O)C12CC3CCC(CC(C3)C1)C2` to `O=C(Nc1ncccc1O)C12CC3CC(CC(C3)C1)C2`, the “% Inhibition @ 10 uM” value rises from 1.84% to 2.94%.

First: CCN1C(=O)N/C(=C/c2c(OC)cc(OC)cc2OC)C1=O
Second: CCOc1ccccc1C(=O)Nc1ccc(OC)cc1OC
The “% Inhibition @ 10 uM” value of the first is lower: 5.73% for the first, 7.48% for the second.

First: COc1ccc(C2C(C(=O)c3ccc(C)cc3)=C(O)C(=O)N2Cc2ccccc2)cc1OC (centres unmarked)
Second: Cc1ccc(OCCNC(=O)c2cccc3ccccc23)cc1
The “% Inhibition @ 10 uM” value of the first is higher: -1.93% for the first, -3.45% for the second.

Going from `CCOc1ccc(-c2c(C)nn3c(O)c(N4CCC(C)CC4)c(C)nc23)cc1OCC` to `Cc1cc(=O)n2nc(N3CCC(C(=O)NCCC4=CCCCC4)CC3)sc2n1`, the “% Inhibition @ 10 uM” value falls from 0.953% to -2%.

Going from `CCOC(=O)N1CCN(C2CCC(c3ccccc3)CC2)CC1` (centres unmarked) to `COc1ccccc1N1CCN(C(=O)C(C)N(c2ccccc2)S(C)(=O)=O)CC1` (centres unmarked), the “% Inhibition @ 10 uM” value rises from -3.6% to 3.29%.

First: Fc1ccc(-c2csc(N3N=C(c4ccccc4)CC3c3ccccc3)n2)cc1 (centres unmarked)
Second: CCCS(=O)(=O)c1oc(-c2ccc(F)cc2)nc1S(=O)(=O)c1ccccc1
The “% Inhibition @ 10 uM” value of the first is lower: -1.48% for the first, 2.14% for the second.

First: OCCSCCc1ccncc1
Second: O=C(CCn1cccc1)NCCc1ccc(Cl)cc1
The “% Inhibition @ 10 uM” value of the first is higher: -2.51% for the first, -6.09% for the second.

Going from `O=C(O)c1ccc2c(c1)C(=O)N(c1ccc3c(c1)C(=O)N(c1ccccc1)C3=O)C2=O` to `Cn1c(=O)[nH]c(=O)c2c1nc(NCc1ccccc1)n2CC(O)COc1cccc2ccccc12` (centres unmarked), the “% Inhibition @ 10 uM” value falls from 7.77% to 1.67%.

Going from `Cc1ccc(C)n1-c1sc2c(c1C#N)CCCC2` to `Cc1c2c(nc3c(C(=O)NCc4ccccc4)cnn13)CCCC2`, the “% Inhibition @ 10 uM” value rises from 3.05% to 4.47%.

First: Nc1ccc(-c2csc(N)n2)cc1
Second: COc1cccc(Nc2nc(-c3ccc(C)c(C)c3)cs2)c1
The “% Inhibition @ 10 uM” value of the first is lower: -1.5% for the first, 3.61% for the second.

Going from `Cn1c(=O)c2c(ncn2Cc2ccccc2C#N)n(C)c1=O` to `Cn1c(=O)c2c(ncn2CCCOC2c3ccccc3CCc3ccccc32)n(C)c1=O`, the “% Inhibition @ 10 uM” value falls from 0.755% to 0.189%.

Compared with `CC(=O)Nc1ccc(N2C(=O)C3C4C=CC(C4)C3C2=O)cc1` (centres unmarked), `COc1cc(NC(=O)c2ccco2)ccc1NC(=O)c1ccco1` is lower in “% Inhibition @ 10 uM” value: 1.64% for the first, -0.511% for the second.

First: Cc1c[nH]nc1/N=C/C1=C(O)c2ccccc2C1=O
Second: Cn1ccc(=O)c2c(-c3ccccc3)nc3nonc3c21
The “% Inhibition @ 10 uM” value of the first is higher: -2.78% for the first, -3.27% for the second.

Compared with `N#CCNC(=O)C1(NC(=O)c2ccc(-c3ccccc3Cl)cc2)CCCCCCC1`, `Cc1ccc(S(=O)(=O)NCC2CCC(C(=O)NCc3ccccc3)CC2)cc1` (centres unmarked) is higher in “% Inhibition @ 10 uM” value: 0.079% for the first, 0.718% for the second.

Going from `Cc1ccc(CCNC(=O)c2coc3nc4ccccc4nc23)cc1` to `COc1ccc(CCNC(=O)C(C)n2nc(C)c3c(C)n(-c4ccc(C)cc4)nc3c2=O)c(OC)c1` (centres unmarked), the “% Inhibition @ 10 uM” value rises from -4.53% to -3.43%.

Compared with `CC1CC(C)CN(S(=O)(=O)N2CCCC(C(=O)NCCc3ccc(Cl)cc3)C2)C1` (centres unmarked), `COc1ccc(C2=NN(CC(=O)NC3CCCCC3C)C(=O)CC2)cc1` (centres unmarked) is lower in “% Inhibition @ 10 uM” value: 3.79% for the first, -0.0542% for the second.

Compared with `COc1ccc(C2(C#N)CCC(O)CC2)cc1OC` (centres unmarked), `COc1cc(/C=C2/C(=N)N3N=C(C4CCCCC4)SC3=NC2=O)cc(OC)c1OC` is lower in “% Inhibition @ 10 uM” value: 2.4% for the first, -3.4% for the second.

Compared with `O=C(CSc1nc2ccccc2[nH]1)NC1CCCCC1`, `O=C(NC1CCCCC1)c1cccc(Cn2cc(Cl)cn2)c1` is higher in “% Inhibition @ 10 uM” value: -4.43% for the first, 2.08% for the second.

Going from `Cc1ccc(-c2cn3nc(N4CCCC(C(=O)O)C4)sc3n2)cc1` (centres unmarked) to `Cc1ccc(C(C(=O)NC2CCCC2)N2CCC3(CC2)OCCO3)cc1` (centres unmarked), the “% Inhibition @ 10 uM” value rises from 0.0882% to 2.84%.

First: O=C(Nc1c(C(=O)N2CCN(C(=O)c3ccco3)CC2)oc2ccccc12)c1ccco1
Second: Cc1cccc(CNC(=O)CCC(=O)N2CCSc3ncccc32)c1
The “% Inhibition @ 10 uM” value of the first is lower: -2.72% for the first, 1.05% for the second.

First: CCOc1cc([N+](=O)[O-])c2[nH]c3c(c2c1)CCNC3=O
Second: COc1ccc2oc(=O)cc(CN(C)CCC#N)c2c1
The “% Inhibition @ 10 uM” value of the first is higher: 1.87% for the first, 1.67% for the second.

Compared with `COc1ccc(OCC(=O)Nc2ccc(S(=O)(=O)N3CCc4ccccc43)cc2)cc1`, `COc1ccc(C2C(C#N)=C(SCC(=O)Nc3ccc(F)cc3)N=C3CC(C)(C)CC(O)=C32)cc1` (centres unmarked) is lower in “% Inhibition @ 10 uM” value: 10% for the first, -4.65% for the second.

First: CSc1nc(C)c(C)c(O)n1
Second: Cc1cc(Nc2ccccc2)nc(N)n1
The “% Inhibition @ 10 uM” value of the first is higher: 1.25% for the first, -2.6% for the second.

First: CCn1c(C)nc2cc(S(=O)(=O)N(C)C)ccc21
Second: O=S(=O)(Nc1cc(Cl)c(Cl)cc1Cl)c1ccc(Cl)cc1
The “% Inhibition @ 10 uM” value of the first is lower: -0.128% for the first, 3.85% for the second.

First: O=C(O)c1nn2c(C(F)(F)F)cc(-c3ccccc3)nc2c1Br
Second: O=C(NC1(C(F)(F)F)N=C(c2ccccc2)NC1=O)c1ccccc1F (centres unmarked)
The “% Inhibition @ 10 uM” value of the first is higher: 0.247% for the first, -5.4% for the second.

Compared with `N#C/C(=C\c1ccccc1O)c1nc(O)c2ccccc2n1`, `O=C(O)CCCn1cc(NC(=O)c2cccc(F)c2)cn1` is lower in “% Inhibition @ 10 uM” value: -2.87% for the first, -5.96% for the second.

Compared with `CSc1ccc(CN2CCN(Cc3ccc(C)cc3)CC2)cc1`, `CCCN1CCC(NC(C)COC)CC1` (centres unmarked) is lower in “% Inhibition @ 10 uM” value: 2.45% for the first, -0.0908% for the second.
